# Source: the supplement of paper PMC11417369
# Some of the results follow.
# System: PfSIP2 AP2 domain 1 (GST-tagged)
# Assay: gcPBM binding intensity (ln(normalized median fluorescence intensity)); higher = stronger DNA binding
# Method in brief: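 An Agilent 4 × 180k array carrying primer-extended double-stranded 36-bp intergenic genomic probes and negative controls received GST-tagged P. falciparum DNA-binding domains expressed in E. coli, about 25 μg on average, for 1 h. The binding buffer contained 1× PBS, 1% milk, 0.2 mg/ml BSA, 0.5% salmon testes DNA and 0.03% Triton X-100. Binding intensity is the top Masliner-normalised natural-log median intensity across replicate spots of either probe orientation, read after Alexa488 anti-GST antibody staining and a 488 nm scan.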
row,Sequence,gcPBM binding intensity (ln)
1,GACATTAAAATGAAATATACATATATATGTATATAT [TGCATGCA_negctrl_site601],7.24
2,TTACATTTTTGAAATAGATACATACACGTGTATGTA [CACACA_negctrl_site1311],7.03
3,AAATTATTTATATGTTGTACTTATCCATTTTTATAA [XGTACX_site7441],7.26
4,TATATTTATAGACACACACACAAAAAAAAAAAAAAA [CACACA_site6818],6.95
5,TAATTTTTTTTATTATGTACTTAATAAATGTTAATT [XGTACX_site365],7.19
6,AATAAACATATATGTACACACATATACATATATATA [CACACA_site2848],7.35
7,TTTTTTTTTAATTATGCATGTAAATTATATATTATA [TGCATGCA_site335],7.03
8,TATTTATAATTAAATACACACATATATTATATATTT [CACACA_site616],6.97
9,TTAGCTACACGCTAATGTACACAAATACAAAGAAAA [XGTACX_site3993],6.94
10,TATACGCATATATAAACACACAAAAAAAAAAAAAAA [CACACA_site2026],6.99
11,TATATTAATTTATATCAACACACAAAATCAATATAC [CACACA_site8518],7.17
12,AAGAATGTTATATTATGATGCTGTCTTTTTTTAAGA [CACACA_negctrl_site251],6.82
13,ATAAAATATTATATATATATATATATATATATATAT [CACACA_negctrl_site215],9.87
14,TGTTAATTAAAACATCATTAATATTATTAAAAATAC [XGTACX_negctrl_site509],7.03
15,TCTTTTTTTACTTTCTTTTTTTTTTTTTTTTTTTTT [XGTACX_negctrl_site610],8.27
16,CCTTTATAAAAAAGTAGTACACAATGAATTTATAAT [XGTACX_site5523],7.1
17,CAATACTAATTGTATACACACAAAAATATACCATAT [CACACA_site3326],6.99
18,AATTGATACCTTACATGTACATAATATATATAAATA [XGTACX_site321],7.16
19,GAACCATTTTTTGGTATACACACGTAATTATATAAT [CACACA_site8552],6.99
20,TTTTTACATACAAATTAACACACATATAGAAAAGAG [CACACA_site8570],8.01
21,ATATAATATTTATATGTACACACCTTAATCCTTAAA [CACACA_site3555],6.94
22,ATAAACGTTTTTGAAAGTACATATCATTCATTTGAT [XGTACX_site200],6.94

row,Sequence,gcPBM binding intensity (ln)
1,TTTTAACATATAAGTACACACATATAATCAATCATA [CACACA_site2325],7.25
2,CCTTATAAATACTGCACACATAAAATATATATTATC [CACACA_site2806],7.59
3,TTTTATCGTTTTTTTTTTTTTTTTTTTTTTTTTTTT [CACACA_negctrl_site1309],8.92
4,TTTGTTCATATGAAATGTACAAAAAAAAAAAAAAAA [XGTACX_site8849],6.86
5,ATGTAGAAGTAATGCACACATATGTATTTATATATA [CACACA_site5391],7.26
6,AAAAAAATTAATATGTCAGCACATATATACATACAT [GTGCAC_negctrl_site110],6.93
7,TATATATATAAAAAAGCACACATACATACATACATA [CACACA_site8196],7.89
8,GAGAAAAGGAAATAACGTACACATATGCATATCCAA [XGTACX_site5858],7.49
9,GTGTTCTTGTTATACACACACATATATATATATATA [CACACA_site1032],9.41
10,TATTTATTGTGACACTTTTATTATTTTATGATAAAA [CACACA_negctrl_site37],6.97
11,TGAAAGAAGCATAAATGTACACACATATTTATATAT [XGTACX_site2645],6.91
12,GAGAGGTCAGTTCACAGTACCCAGAAACTCTACGAG [XGTACX_site2559],6.4
13,GTAATATTTTATAGTAGTACATATTTTTATTATTTT [XGTACX_site3333],6.87
14,AATATTTATTTAATTTCACACAGGTCTTTTTTTTTT [CACACA_site5188],6.73
15,TTGTTCTTATTTCATTTTTATATGATATTTCATTAT [CACACA_negctrl_site1619],7.17
16,TGAAGAATATTTTTCACACATATATATATATATATA [CACACA_site6080],9.69
17,GACAAACAATATGAATGTACATAAAAATATAACTAA [XGTACX_site1167],7.19
18,TGAATATATAAATATGCACACTTCTATTATAAATAA [CACACA_site5796],8.37
19,TAACATATAAGTGTGTGTACGTACTGCGTATAATAT [XGTACX_site8597],7.33
20,ATATATATATATATATGTACATATTTTTGTTTGATG [XGTACX_site51],9.34
21,CAGATATTCATATAAACACACATACAAATTATGTAT [CACACA_site4258],6.95
22,TATATATATAATTAAGCATGCTAGAAACCTTTGAAA [TGCATGCA_site489],7.47
